Data reported in the supplement of paper PMC12217912.
The other results are listed elsewhere or left out. The full chains were built here from the parent and the listed change. Inactive controls read about 0.05.

B1: TEV protease; numbered along this chain (parent)
chain: MGESLFKGPRDYNPISSSICHLTNESDGHTTSLYGIGFGPFIITNKHLFRRNNGTLVVQSLHGVFKVKDTTTLQQHLVDGRDMIIIRMPKDFPPFPQKLKFREPQREERICLVTTNFQTKSMSSMVSDTSCTFPSGDGIFWKHWIQTKDGQCGSPLVSTRDGFIVGIHSASNFTNTNNYFTSVPKNFMELLTNQEAQQWVSGWRLNADSVLWGGHKVFMVKPEEPFQPVKEATQL

Variants of: B1
Test: raw area under fraction-flipped curve 0-4 h after induction (AUC4h, not background-subtracted), DNA-recorder readout of cleavage of the substrate (dimensionless); higher = more cleavage of the substrate by the protease variant
Conditions: temperature: 34 °C; time window: 0-4 h after rhamnose induction
Protocol: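 In vivo DNA recorder in E. coli TOP10(DE3) ΔrhaA at 34 °C. Each TEVp single-site mutant (parent TEVp 0) is paired with a single-site variant of the 7-mer TEVs (canonical ENLYFQ|S). The substrate sits between flexible linkers in a Bxb1-sfGFP-TEVs-SsrA fusion, so cleavage stabilises Bxb1 and speeds flipping of a recombination array, read by NGS. The value is the raw area under the fraction-flipped curve over 0-4 h after rhamnose induction (AUC4h), with ≥20 reads per time point. It is not background-subtracted; inactive controls average about 0.047.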
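Also: Bxb1 expression induced with 0.2% (w/v) L-rhamnose at OD600 near 0.5, cultures sampled hourly, flipped fraction per protease–substrate barcode pair counted by paired-end Illumina sequencing.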

| Variant | area with substrate ENLYFQC | area with substrate ENLYFQH | area with substrate ENLYFQK | area with substrate ENLYFQL | area with substrate ENLYFQM | area with substrate ENLYFQP | area with substrate ENLYFQS | area with substrate ENLYFQT | area with substrate ENLYFQW | area with substrate ENLYFQD | area with substrate ENLYFQG | area with substrate ENLYFQI | area with substrate ENLYFQN | area with substrate ENLYFQQ | area with substrate ENLYFQR | area with substrate ENLYFQY | area with substrate ENLYFQF | area with substrate ENLYFQV | area with substrate ENLYFQE |
| --- | --- | --- | --- | --- | --- | --- | --- | --- | --- | --- | --- | --- | --- | --- | --- | --- | --- | --- | --- |
| MGESLFKGPRDYNPISSSICHLTNESDGHTTSLYGIGFGPFIITNKHLFRRNNGTLVVQSLHGVFKVKDTTTLQQHLVDGRDMIIIRMPKDFPPFPQKLKFREPQREERICLVTTNFQTKSMSSMVSDTSCTFPSGDGIFWKHWIQTKDGQCGSPLVSTRDGFIVGIHSASNFTNTNNYFTSEPKNFMELLTNQEAQQWVSGWRLNADSVLWGGHKVFMVKPEEPFQPVKEATQL [V183E] | 0.0459 | 0.0495 | 0.0572 | 0.019 | 0.0568 | 0.0695 | 0.0489 | 0.046 | 0.051 | – | – | – | – | – | – | – | – | – | – |
| MGESLFKGPRDYNPISSSICHLTNESDGHTTSLYGIGFGPFIITNKHLFRRNNGTLVVQSLHGVFKVKDTTTLQQHLVDGRDMIIIRMPKDFPPFPQKLKFREPQREERICLVTTNFQTKSMSSMVSDTSCTFPSGDGIFWKHWIQTKDGQCGSPLVSTRDGFIVGIHSASNFTNTNNYFTSVPKNFMEGLTNQEAQQWVSGWRLNADSVLWGGHKVFMVKPEEPFQPVKEATQL [L190G] | 0.0928 | 0.0654 | 0.0617 | 0.0633 | 0.0526 | 0.0739 | 0.0775 | – | – | 0.123 | 0.151 | 0.0654 | 0.0713 | 0.0518 | 0.0682 | – | – | – | – |
| MGESLFKGPRDYNPISSSICHLTNESDGHTTSLYGIGFGPFIITNKHLFRRNNGTLVVQSLHGVFKVKDTTTLQQHLVDGRQMIIIRMPKDFPPFPQKLKFREPQREERICLVTTNFQTKSMSSMVSDTSCTFPSGDGIFWKHWIQTKDGQCGSPLVSTRDGFIVGIHSASNFTNTNNYFTSVPKNFMELLTNQEAQQWVSGWRLNADSVLWGGHKVFMVKPEEPFQPVKEATQL [D82Q] | 0.065 | – | – | 0.0502 | – | – | 0.059 | 0.0696 | 0.0971 | – | 0.0625 | 0.046 | 0.0934 | 0.0437 | 0.0529 | 0.0633 | – | – | – |
| MGESLFKGPRDYNPISSSICHLTNESDGHTTSLYGIGFGPFIITNKHLFRRNNGTLVVQSLHGVFKVKDTTTLQQALVDGRDMIIIRMPKDFPPFPQKLKFREPQREERICLVTTNFQTKSMSSMVSDTSCTFPSGDGIFWKHWIQTKDGQCGSPLVSTRDGFIVGIHSASNFTNTNNYFTSVPKNFMELLTNQEAQQWVSGWRLNADSVLWGGHKVFMVKPEEPFQPVKEATQL [H76A] | 0.0992 | – | 0.0559 | – | 0.0684 | 0.0549 | 0.0877 | 0.0581 | 0.0678 | – | 0.0807 | – | 0.0721 | – | 0.0683 | 0.0671 | 0.0567 | 0.0607 | – |
| MGESLFKGPRDYNPISSSICHLTNESDGHTTSLYGIGFGPFIITNKHLFRRNNGTLVVQSLHGVFKVKDTTTLQQHLVDGRDMIIIRMPKDFPPFPQKLKFREPQREERICLVTTNKQTKSMSSMVSDTSCTFPSGDGIFWKHWIQTKDGQCGSPLVSTRDGFIVGIHSASNFTNTNNYFTSVPKNFMELLTNQEAQQWVSGWRLNADSVLWGGHKVFMVKPEEPFQPVKEATQL [F117K] | 0.111 | – | 0.0525 | 0.0703 | 0.0699 | – | 0.0953 | – | 0.0613 | – | – | 0.0766 | – | 0.0323 | – | – | – | 0.0605 | – |
| MGESLFKGPRDYNPISSSICHLTNESDGHTTSLYGIGFGPFIITNKHLFRRNNGTLVVQSLHGVFKVKDTTTLQQHLVDGRDMIIIRMPKDFPPFPQKLKFREPQREERICLVTTNFQTKSMSSMVSDTSCTFPSGDGIFWKHWIQTKDGQCGSPLVSTRDGFIVGIHSASNFTNTNNLFTSVPKNFMELLTNQEAQQWVSGWRLNADSVLWGGHKVFMVKPEEPFQPVKEATQL [Y179L] | 0.0618 | 0.0477 | – | 0.0406 | – | – | 0.0589 | 0.0583 | 0.0496 | – | – | 0.0695 | – | – | 0.0529 | – | 0.0575 | 0.0745 | – |
| MGESLFKVPRDYNPISSSICHLTNESDGHTTSLYGIGFGPFIITNKHLFRRNNGTLVVQSLHGVFKVKDTTTLQQHLVDGRDMIIIRMPKDFPPFPQKLKFREPQREERICLVTTNFQTKSMSSMVSDTSCTFPSGDGIFWKHWIQTKDGQCGSPLVSTRDGFIVGIHSASNFTNTNNYFTSVPKNFMELLTNQEAQQWVSGWRLNADSVLWGGHKVFMVKPEEPFQPVKEATQL [G8V] | 0.125 | – | – | 0.054 | – | – | 0.103 | 0.0612 | – | – | – | – | – | – | – | – | – | – | – |
| MGESLFKGPRDYNPISSSICHLTNESDGHTTSLYGIGFGPFIITNKHLFRRNNGTLVVQSLHGVFKVKDTTTLQQHLVDGRDMIIIRMPKDFPPFPQKLKFREPQREERICLVTTNFQTKSMSSMVSDTSCTFPSGDGIFWKHWIQTKDGQCGSPLVSTRDGFIVGIHSASNFTNTNNYFTSVPKNFMELLTNQEQQQWVSGWRLNADSVLWGGHKVFMVKPEEPFQPVKEATQL [A196Q] | 0.121 | – | 0.0709 | 0.0683 | 0.0806 | 0.073 | 0.107 | 0.0591 | 0.065 | – | 0.0962 | 0.0627 | 0.0908 | 0.0892 | 0.0651 | 0.0598 | – | 0.0743 | – |
| MGESLFKGPRDYNPISSSICHLTNESDGHTTSLYGIGFGPFIITNKHLFRRNNGTLVVQSLHGVFKVKDDTTLQQHLVDGRDMIIIRMPKDFPPFPQKLKFREPQREERICLVTTNFQTKSMSSMVSDTSCTFPSGDGIFWKHWIQTKDGQCGSPLVSTRDGFIVGIHSASNFTNTNNYFTSVPKNFMELLTNQEAQQWVSGWRLNADSVLWGGHKVFMVKPEEPFQPVKEATQL [T70D] | 0.0787 | 0.0418 | 0.0452 | 0.062 | 0.0698 | – | 0.0738 | 0.0615 | 0.0529 | 0.0527 | 0.0755 | 0.0473 | – | – | 0.0522 | 0.0608 | 0.0392 | 0.0709 | 0.0502 |
| MGESLFKGPRDYNPISSSICHLTNESDGHTTSLYGIGFGPFITTNKHLFRRNNGTLVVQSLHGVFKVKDTTTLQQHLVDGRDMIIIRMPKDFPPFPQKLKFREPQREERICLVTTNFQTKSMSSMVSDTSCTFPSGDGIFWKHWIQTKDGQCGSPLVSTRDGFIVGIHSASNFTNTNNYFTSVPKNFMELLTNQEAQQWVSGWRLNADSVLWGGHKVFMVKPEEPFQPVKEATQL [I43T] | 0.0794 | 0.0693 | – | 0.0431 | 0.0639 | 0.0462 | 0.0775 | 0.049 | 0.0691 | – | 0.0683 | 0.0511 | 0.0601 | – | 0.0526 | 0.0581 | 0.0686 | 0.0556 | – |
